In article PMC4336329 (PLoS ONE, 2015):
The whole screen tested about 310,000 compounds, of which about 2,200 (0.71%) showed an effect of 50% or more. The effect is printed as a negative number. The list shows a part of the results.

Target: human ether-à-go-go-related gene (hERG) potassium channel (human, UniProt Q12809)
Test: primary screen, population patch clamp on CHO cells stably expressing hERG

Sequence of human ether-à-go-go-related gene (hERG) potassium channel (Q12809 whole entry, looked up): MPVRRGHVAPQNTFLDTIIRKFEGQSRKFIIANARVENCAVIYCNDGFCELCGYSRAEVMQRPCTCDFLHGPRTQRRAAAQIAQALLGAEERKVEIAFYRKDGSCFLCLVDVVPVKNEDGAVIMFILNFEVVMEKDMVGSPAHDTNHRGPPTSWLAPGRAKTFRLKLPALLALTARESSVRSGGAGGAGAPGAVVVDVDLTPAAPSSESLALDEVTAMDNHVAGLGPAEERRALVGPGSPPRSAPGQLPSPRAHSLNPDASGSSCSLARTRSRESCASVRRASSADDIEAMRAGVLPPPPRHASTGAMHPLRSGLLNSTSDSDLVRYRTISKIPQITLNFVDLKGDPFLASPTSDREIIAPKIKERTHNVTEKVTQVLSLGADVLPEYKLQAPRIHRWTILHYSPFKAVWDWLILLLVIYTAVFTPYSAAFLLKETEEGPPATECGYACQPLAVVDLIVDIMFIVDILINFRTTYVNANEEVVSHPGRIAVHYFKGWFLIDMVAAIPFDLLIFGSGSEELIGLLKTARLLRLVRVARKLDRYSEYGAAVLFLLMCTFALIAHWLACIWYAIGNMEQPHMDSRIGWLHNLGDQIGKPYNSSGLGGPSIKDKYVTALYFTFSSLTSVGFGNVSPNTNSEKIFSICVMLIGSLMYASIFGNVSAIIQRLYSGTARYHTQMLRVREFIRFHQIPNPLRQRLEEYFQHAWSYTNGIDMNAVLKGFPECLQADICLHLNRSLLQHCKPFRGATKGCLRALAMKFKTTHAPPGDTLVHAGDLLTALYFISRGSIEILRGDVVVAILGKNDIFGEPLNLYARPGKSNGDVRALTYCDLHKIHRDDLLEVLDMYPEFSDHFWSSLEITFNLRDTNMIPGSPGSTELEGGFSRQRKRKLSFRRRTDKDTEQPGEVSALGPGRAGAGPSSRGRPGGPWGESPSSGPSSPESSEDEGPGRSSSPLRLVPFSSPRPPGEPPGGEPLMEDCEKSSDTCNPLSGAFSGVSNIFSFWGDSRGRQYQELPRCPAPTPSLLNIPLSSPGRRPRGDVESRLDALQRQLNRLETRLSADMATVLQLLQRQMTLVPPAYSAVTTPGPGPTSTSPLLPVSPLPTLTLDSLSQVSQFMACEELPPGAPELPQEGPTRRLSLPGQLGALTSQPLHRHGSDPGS

Point of comparison: O=C(Cn1cnc2sc(-c3ccccc3)cc2c1=O)NCc1ccco1, “hERG current change (%, negative = inhibition) at 1uM” value 4.67%. Against it:
- COc1ccc(C(C(=O)NCC2CCCO2)N(Cc2cccs2)C(=O)c2snc(C(N)=O)c2N)cc1 (stereo not drawn) — higher, 18%
- CCN(CC)c1ccc(-n2c(C)c(C(C)=O)c(C(C)=O)c2C)cc1 — higher, 17.4%
- CCOc1ccc(/C=N/NS(=O)(=O)c2ccc(C)cc2)cc1OC — higher, 15.4%
- COc1ccc(N2CCN(CC(O)COC(C)(C)C)CC2)cc1.O=C(O)C(=O)O (stereo not drawn) — higher, 12.5%
- Cc1cc([N+](=O)[O-])nn1CCCC(=O)Nc1sc2c(c1C(N)=O)CCC(C)C2 (stereo not drawn) — lower, 0.741%
- Cc1cc2ncn(S(=O)(=O)c3ccc(S(=O)(=O)N4CCOCC4)cc3)c2cc1C — lower, 4.34%
- O=c1[nH]c(=S)c2c(n1-c1ccccc1)CCC2 — higher, 7.19%
- CCOC(=O)c1ccc(CNC(=O)C2CCC(=O)N(CCc3ccccc3)C2)o1 (stereo not drawn) — higher, 18%
- CC(C)C(=O)Nc1cccc(NC(=O)c2cccc([N+](=O)[O-])c2)c1 — lower, -8.83%
- COCCn1c(-c2cccc([N+](=O)[O-])c2)nc2c1c(=O)[nH]c(=O)n2Cc1ccccc1 — lower, -42.9%
- Cn1c(=O)c2c(nc(Cl)n2Cc2ccc(Cl)c(Cl)c2)n(C)c1=O — lower, -4.81%
- Cc1onc(-c2ccccc2)c1C(=O)NNC(=O)c1ccccc1Br — higher, 10.5%
- COCCNc1nc(C)cc(-c2cc(C(=O)Nc3ccccc3)on2)n1 — lower, 0.262%
- Cc1cc(-n2c(SCC(=O)NCCC3=CCCCC3)nc3n[nH]c(C)c3c2=N)ccc1Cl — lower, 2.48%
- O=C(Nc1cccc2c1C(=O)NC2=O)c1ccccc1[N+](=O)[O-] — higher, 12.1%
- CCOC(=O)C1C(=O)NCC1c1ccccc1 (stereo not drawn) — higher, 16.7%
- Cc1nnc(SCC(=O)N2CCCCC2)n1CC1CCCO1 (stereo not drawn) — higher, 8.12%
- CC(Oc1ccccc1)C(=O)Nc1nc(-c2ccncc2)cs1 (stereo not drawn) — higher, 16.9%
- CCOC(=O)c1sc(Nc2nc3ccc(OC)cc3s2)cc1C — higher, 5.47%
- CC1C(=O)Nc2ccccc2N1C(=O)c1ccc(Cl)c(Cl)c1 (stereo not drawn) — higher, 11.1%
- CCN(CC)c1ccc(C=Nc2ccccc2)c(O)c1 — higher, 9.88%
- COc1ccc(CCNC(=O)CCS(=O)(=O)c2ccc(C)cc2)cc1OC — lower, -2.67%
- O=C(CCc1nc(-c2ccccc2F)no1)NCCN1CCOCC1 — higher, 10.4%
- CCCCN(C(=O)Oc1ccccc1)C1CCS(=O)(=O)C1 (stereo not drawn) — lower, -5.02%
- O=C(Nc1ccccc1Cl)c1cccs1 — lower, 0.636%
- CN(c1ccccc1)P(=O)(N(C)c1ccccc1)N(C)c1ccccc1 — lower, 3.65%
- O=C(Nc1ccc(F)cc1)c1ccccc1CC[N+](=O)[O-] — higher, 6.42%
- COc1ccc2occ(NC(C)=O)c2c1 — lower, 3.53%
- Cn1c(=O)n(CC(=O)N2CCOCC2)c2ccccc21 — lower, 2.5%
- COc1cccc(/C=C(/C(=O)OCC(N)=O)c2ccccc2)c1 — higher, 5.68%
- CCOc1cc(/C=N\NC(=O)CC(=O)NCCc2ccccc2)ccc1O — higher, 18.6%
- CN(CC(=O)Nc1ccc(F)cc1)C(=O)CN1C(=O)c2ccccc2C1=O — higher, 6.79%
- Cc1ncc(CC(=O)n2cc(C(=O)c3cc(Cl)ccc3O)cn2)s1 — higher, 7.17%
- CN1CCN(C(=O)C2(NC(=O)Nc3cccc(F)c3)CCCCC2)CC1 — lower, -0.779%
- O=C(NCc1ccc(F)cc1)C1CCCN(C(=O)NCc2ccccc2)C1 (stereo not drawn) — higher, 5.04%
- Cc1ccc(CNC(=O)Cn2ccc3cc(S(=O)(=O)N4CCCCCC4)ccc32)cc1 — higher, 10.6%
- COc1ccc(S(=O)(=O)NNC(=O)c2csc(-n3nc(C)cc3C(F)(F)F)n2)cc1 — higher, 20.7%
- COc1cccc(N2CCN(c3c(C#N)c(C(F)(F)F)nn3C)CC2)c1 — lower, -0.992%
- COc1cccc(/C=N/NC(=O)c2c(-c3ccccc3)noc2C)c1OC — higher, 11.3%
- Cc1ccc(SC(C)c2nc(-c3ccccc3)no2)cc1 (stereo not drawn) — higher, 7.67%
- C/C(N)=C(/C#N)C(=O)CSc1nc2ccccc2c(=O)n1Cc1ccc(F)cc1 — lower, -3.42%
- C=CCn1c(SCC(C)=O)nc2scc(-c3ccc(C)o3)c2c1=O — higher, 13.4%
- CCN(CC)c1ccc(S(=O)(=O)Nc2cc(Cl)ccc2Cl)cc1NC(=S)NC(=O)C1CCCC1 — higher, 13.5%
- Cc1ccc(Nc2nnc(C)c3ccccc23)c(C)c1 — higher, 9.48%
- CCCOc1ccc2oc(=O)c3c(c2c1)CCCN3C(=O)CN1CCCC(C(=O)OCC)C1 (stereo not drawn) — lower, -17%
- CCOC(=O)N1CCN(C(=O)COc2ccc3c(c2)C(=O)CC2(CCN(C(C)=O)CC2)O3)CC1 — higher, 4.93%
- O=C(CN1CCN(S(=O)(=O)c2ccc(C(F)(F)F)cc2)CC1)N1CCNC1=O — higher, 5.17%
- Cn1ncc(Cl)c1C(=O)N1CCc2ccccc21 — lower, -4.69%
- CC(CCc1ccccc1)NC(=O)c1ccccc1 (stereo not drawn) — higher, 8.58%
- CC(=O)Nc1c2c(nn1-c1ccc(C)cc1C)CS(=O)C2 (stereo not drawn) — higher, 13.3%
- CCn1cc(S(=O)(=O)CC(=O)Nc2ccc3c(c2)OCO3)c2ccccc21 — higher, 12.6%
- O=C1c2ccccc2C(=O)N1CCSc1nncs1 — lower, -5.9%
- O=C(O)CCCN1C(=O)NC2NC(=O)NC21 (stereo not drawn) — higher, 10.2%
- CCC(=O)N1CCc2cc(S(=O)(=O)N3CCN(c4cc(C)ccc4C)CC3)ccc21 — higher, 16.2%
- O=C(CCCC(=O)OCC(=O)NC1CCCC1)Nc1ccccn1 — lower, 0.502%
- COc1ccc([N+](=O)[O-])c(OC)c1C(=O)NC(=O)Nc1nc(C)nc(C)n1 — lower, -0.625%
